The antibiotic and cytotoxicity screens of Wong et al. (2023)
Some of the results follow.

Tested on: HSkMC (human skeletal muscle cells)
Test: cytotoxicity call (relative viability < 0.9)
Settings: 10 µM

Row | Compound | cytotoxicity call
1 | O=C(Nc1ccc2c(c1)[C@@H]1C[C@H](CC(=O)N3CCc4ccccc4C3)O[C@@H](CO)[C@@H]1O2)C1CCOCC1 | inactive
2 | COCC(=O)N(C)C[C@H]1Oc2cc(C#C[C@H](C)O)ccc2S(=O)(=O)N([C@@H](C)CO)C[C@@H]1C | inactive
3 | OCC(CO)NC1CC(O)(CO)C(O)C(O)C1O (stereo not given) | inactive
4 | C[C@@H]1CCCCO[C@@H](CN(C)C)[C@@H](C)CN([C@H](C)CO)C(=O)c2cc(NC(=O)Nc3ccc(C(F)(F)F)cc3)ccc2O1 | inactive
5 | Cc1noc(C)c1S(=O)(=O)Nc1cccc2c1O[C@@H](CN(C)S(=O)(=O)c1ccc(F)cc1)[C@@H](C)CN([C@@H](C)CO)C2=O | inactive
6 | C[C@@H]1CN([C@@H](C)CO)C(=O)c2cc(NC(=O)Cc3cn(C)c4ccccc34)ccc2O[C@H]1CN(C)Cc1ccc(C(F)(F)F)cc1 | inactive
7 | C[C@H]1CN([C@@H](C)CO)C(=O)c2cccc(NC(=O)C3CCOCC3)c2O[C@H]1CN(C)C(=O)Nc1ccccc1 | inactive
8 | Cc1ccc(S(=O)(=O)Nc2ccc3c(c2)CC(=O)N([C@@H](C)CO)C[C@@H](C)[C@H](CN(C)C(=O)Nc2cccc4ccccc24)O3)cc1 | inactive
9 | C=CCOC(=O)N(C)C[C@@H]1OCCCC[C@H](C)Oc2ccc(NC(=O)Nc3ccccc3)cc2C(=O)N([C@@H](C)CO)C[C@H]1C | inactive
10 | Cc1noc(C)c1S(=O)(=O)Nc1ccc2c(c1)C(=O)N([C@@H](C)CO)C[C@@H](C)[C@@H](CN(C)C(=O)Nc1ccc3c(c1)OCO3)O2 | inactive
11 | COc1ccc(S(=O)(=O)Nc2cccc3c2O[C@H](CN(C)S(=O)(=O)c2cn(C)cn2)[C@H](C)CN([C@H](C)CO)C3=O)cc1 | inactive
12 | C[C@H](CO)N1C[C@H](C)[C@H](CN(C)C(=O)Nc2ccc(C(F)(F)F)cc2)Oc2ccc(NC(=O)Nc3ccccc3)cc2C1=O | active
13 | Cc1ccc(-c2ccc(OC(=O)c3ccccc3F)cc2)cc1 | inactive
14 | C[C@H]1CN([C@@H](C)CO)C(=O)c2cc(NC(=O)Cn3cnnn3)ccc2O[C@H]1CN(C)CC1CC1 | inactive
15 | Cc1noc(C)c1S(=O)(=O)Nc1ccc2c(c1)C(=O)N([C@@H](C)CO)C[C@H](C)[C@@H](CN(C)CC1CCCCC1)OCCCC[C@@H](C)O2 | inactive
16 | CC(C)NC(=O)Nc1ccc2c(c1)C(=O)N([C@@H](C)CO)C[C@@H](C)[C@H](CN(C)CC1CCCCC1)OCCCC[C@@H](C)O2 | inactive
17 | C[C@H]1CN([C@@H](C)CO)C(=O)Cc2cc(NC(=O)Cn3cnnn3)ccc2O[C@@H]1CN(C)Cc1ccc(C(=O)Nc2ccccc2N)cc1 | inactive
18 | COc1ccc(CCNS(=O)(=O)c2cn(C)c(=O)n(C)c2=O)cc1 | inactive
19 | C[C@@H]1CCCCO[C@H](CN(C)C(=O)Nc2cccc3ccccc23)[C@@H](C)CN([C@@H](C)CO)C(=O)c2cc(NC(=O)CCC(F)(F)F)ccc2O1 | inactive
20 | Cc1ccc(S(=O)(=O)N(C)C[C@@H]2Oc3ccc(NS(C)(=O)=O)cc3CC(=O)N([C@H](C)CO)C[C@@H]2C)cc1 | inactive

Row | Compound | cytotoxicity call
21 | COc1ccc(CN(C)C[C@@H]2Oc3c(NC(=O)c4ccc(-c5nccs5)cc4)cccc3C(=O)N([C@H](C)CO)C[C@H]2C)cc1 | active
22 | OC1(Cn2ccnc2)CCNCC1 | inactive
23 | Cc1ccc(S(=O)(=O)Nc2ccc3c(c2)C(=O)N([C@@H](C)CO)C[C@@H](C)[C@@H](CN(C)Cc2ccc(C(F)(F)F)cc2)O3)cc1 | inactive
24 | C[C@@H]1CN([C@@H](C)CO)C(=O)Cc2cc(NC(=O)Nc3ccc4c(c3)OCO4)ccc2O[C@@H]1CN(C)S(=O)(=O)c1cn(C)cn1 | inactive
25 | C[C@H]1CCCCO[C@@H](CN(C)S(=O)(=O)c2ccc(Cl)cc2)[C@@H](C)CN([C@@H](C)CO)C(=O)c2cc(NC(=O)NC3CCCCC3)ccc2O1 | inactive
26 | C[C@H](CO)N1C[C@H](C)[C@H](CN(C)Cc2ccccc2)Oc2c(NC(=O)c3ccc(-c4nccs4)cc3)cccc2C1=O | inactive
27 | C[C@@H]1CN([C@@H](C)CO)C(=O)c2c(c3ccccc3n2C)-c2ccccc2CO[C@@H]1CN(C)C(=O)Nc1ccc2c(c1)OCO2 | inactive
28 | C[C@H]1CN([C@@H](C)CO)C(=O)c2cccc(NC(=O)C3CCCCC3)c2O[C@@H]1CN(C)Cc1ccc(Oc2ccccc2)cc1 | inactive
29 | C=CC[C@@H](CC(=O)N(CCO)Cc1ccccc1)C(=O)N[C@@H](COC(=O)[C@@H](CC=C)Cc1ccc(F)cc1)Cc1c[nH]c2ccccc12 | active
30 | Cc1nnn(C23C[C@@H]4C[C@@H](CC(NC(=O)[C@H](N)CC(C)C)(C4)C2)C3)n1 | inactive
31 | CN1CCN(C(=O)[C@@H]2[C@@H](CO)[C@@H]3Cn4c(cccc4=O)[C@H]2N3S(=O)(=O)c2ccccc2F)CC1 | inactive
32 | C[C@@H]1CCCCO[C@@H](CN(C)C)[C@H](C)CN([C@@H](C)CO)C(=O)c2cc(NC(=O)CCCN(C)C)ccc2O1 | inactive
33 | C[C@H]1CN([C@@H](C)CO)C(=O)c2cccc(NC(=O)C3CC3)c2O[C@H]1CN(C)S(=O)(=O)c1cccs1 | inactive
34 | C[C@H](CO)N1C[C@H](C)[C@H](CN(C)Cc2ccncc2)OCCCC[C@H](C)Oc2ccc(NC(=O)Nc3cccc4ccccc34)cc2C1=O | inactive
35 | CC(C)NC(=O)N(C)C[C@@H]1Oc2ccc(NC(=O)Nc3ccc4c(c3)OCO4)cc2CC(=O)N([C@@H](C)CO)C[C@@H]1C | inactive
36 | C[C@H]1CN([C@@H](C)CO)S(=O)(=O)c2ccc(C#CCN(C)C)cc2O[C@H]1CN(C)C(=O)C1CCCCC1 | inactive
37 | C[C@H](CO)N1C[C@H](C)[C@@H](CN(C)Cc2ccc(F)cc2)Oc2cc(C#CC(C)(C)O)ccc2S1(=O)=O | inactive
38 | C[n+]1ccc(CCCO)cc1 | inactive
39 | COc1ccc(NC(=O)Nc2ccc3c(c2)[C@H]2C[C@H](CC(=O)NCC(F)(F)F)O[C@@H](CO)[C@H]2O3)cc1 | inactive
40 | COC1C=CC23c4cc5c(cc4CN(CC2O)C3C1)OCO5 (stereo not given) | inactive
